# Several values for one entry are separate records, joined by “and”; a condition that tells them apart may be missing. Equal entries are not always repeated. About 31,000 (8.9%) of roughly 350,000 compounds were called active. The shares of active, inactive and inconclusive entries below differ from those in the screen. Calls follow the shape of the dose curve; as a rule, active = well fitted inhibition curve with a large enough effect; inconclusive = small, poorly fitted or top-dose-only effect; inactive = no such curve, though single readings can be large or run the other way. A potency beside an inconclusive call is a rough fit, not a confirmed value.
# Biological target: Histone-lysine N-methyltransferase EHMT2 (Homo sapiens) (UniProt Q96KQ7)
# Chain of UniProt Q96KQ7 (Q96KQ7 whole entry, looked up): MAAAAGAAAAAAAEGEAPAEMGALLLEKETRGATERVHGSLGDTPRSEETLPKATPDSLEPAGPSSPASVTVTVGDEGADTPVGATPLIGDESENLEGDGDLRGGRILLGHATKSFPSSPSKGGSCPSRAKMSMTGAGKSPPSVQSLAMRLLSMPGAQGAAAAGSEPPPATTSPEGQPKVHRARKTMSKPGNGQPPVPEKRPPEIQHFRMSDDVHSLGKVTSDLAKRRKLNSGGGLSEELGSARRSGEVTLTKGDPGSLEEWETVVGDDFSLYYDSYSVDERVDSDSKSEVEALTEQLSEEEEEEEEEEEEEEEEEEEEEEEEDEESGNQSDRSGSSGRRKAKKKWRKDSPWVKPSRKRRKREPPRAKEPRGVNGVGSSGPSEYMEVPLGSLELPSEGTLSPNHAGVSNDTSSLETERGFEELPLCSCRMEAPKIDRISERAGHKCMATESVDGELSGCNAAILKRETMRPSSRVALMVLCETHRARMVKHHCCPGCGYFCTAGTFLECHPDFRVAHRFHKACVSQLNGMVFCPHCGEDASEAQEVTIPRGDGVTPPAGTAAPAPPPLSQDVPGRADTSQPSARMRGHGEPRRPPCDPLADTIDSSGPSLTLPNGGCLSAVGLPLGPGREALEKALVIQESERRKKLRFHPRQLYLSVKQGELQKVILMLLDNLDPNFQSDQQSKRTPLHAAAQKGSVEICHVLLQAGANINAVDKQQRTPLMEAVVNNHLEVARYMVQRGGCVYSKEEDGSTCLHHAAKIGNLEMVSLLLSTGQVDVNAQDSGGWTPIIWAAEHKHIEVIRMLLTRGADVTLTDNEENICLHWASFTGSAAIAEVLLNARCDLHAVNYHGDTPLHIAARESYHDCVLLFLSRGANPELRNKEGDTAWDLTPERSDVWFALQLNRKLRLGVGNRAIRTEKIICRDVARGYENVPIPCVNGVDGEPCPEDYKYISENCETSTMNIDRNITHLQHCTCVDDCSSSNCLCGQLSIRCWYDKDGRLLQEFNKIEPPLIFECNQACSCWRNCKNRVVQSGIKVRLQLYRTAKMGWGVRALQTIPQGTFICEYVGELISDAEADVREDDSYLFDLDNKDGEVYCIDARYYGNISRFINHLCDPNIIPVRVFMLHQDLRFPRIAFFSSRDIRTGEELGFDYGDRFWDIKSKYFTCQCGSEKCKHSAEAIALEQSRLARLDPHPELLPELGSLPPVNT
# Test: qHTS Assay for Inhibitors of Histone Lysine Methyltransferase G9a; also: nearly all actives have a fitted effect of over 75% in size
# Conditions: G9a H3K9 monomethylation, AlphaScreen, 2 h; activity, negative = inhibition: at 59 µM (top of the series) unless noted
# How it was run: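 Using a bead-based AlphaScreen, monomethylated H3K9 product from 2 h room-temperature reactions (G9a 20 nM, peptide 500 nM, SAM 20 uM) was detected with 0.5 ug/mL rabbit anti-H3K9me1 antibody.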
# % is scaled to controls: 0 for no effect and ±100 for the full control effect; potency is read from the fitted curve at half-maximal effect; tags tell the direction and shape of the fitted curve.
Compound,Potency,"activity, negative = inhibition"
Cc1ccc(CC(CC(=O)O)C(=O)Nc2ccc(Cl)cc2)cc1 (centres undefined),inactive,
C=CCOc1ccc(Br)cc1/C=C1/SC(=Nc2ccc(C(=O)O)cc2)NC1=O,active: 20 µM,
Cc1cccc(NS(=O)(=O)c2ccc(C3CCCCC3)cc2)n1,"inconclusive: 1.12 µM [inhibitor, partial curve, poor fit]",
Cc1ccc(S(=O)(=O)N(C)CCCC(=O)Nc2ccc(F)cc2)cc1,inactive,
O=C(CNS(=O)(=O)c1ccccc1)N/N=C/c1ccccc1[N+](=O)[O-],inactive,
COC(=O)c1cc(OC)c(OC)c(OC)c1[N+](=O)[O-],"inconclusive: 0.891 µM [inhibitor, partial curve, poor fit]",
O=C(Nc1c(F)cc(F)cc1Br)c1ccco1,,inconclusive: -86.8% [inhibitor]
CCn1c(C(=O)N2CCC(C(=O)N3CCN(c4cc(C)ccc4C)CC3)CC2)cc2sccc21,"inconclusive: 22.4 µM [inhibitor, single point]",
C=CCOc1ccccc1OC[C@H](O)CNC(C)C,inactive,
CCOc1ccc(CNC(=O)c2cccc(NC(=O)N3CCSc4ncccc43)c2)cc1,"inconclusive: 8.91 µM [inhibitor, single point]",
CCCCCN(C(=O)CCC(=O)OCC(=O)N(C)Cc1ccc(C)cc1)c1c(N)n(CCCC)c(=O)[nH]c1=O,inactive,
Cc1cc(NC(=O)c2cccc(C)c2[N+](=O)[O-])no1,"inconclusive: 89.1 µM [inhibitor, single point]",
O=C(Nc1cccnc1)c1cc(-c2cc(Cl)ccc2O)n[nH]1,"inconclusive: 89.1 µM [inhibitor, single point]",
CCn1c(C)nc2cc(C(=O)N/N=C/c3cccc(OC)c3O)ccc21,active: 79.4 µM,
Cc1cc(C)nc(NNC2=CC(=[N+]3CCCC3)CCC2)n1,"inconclusive: 7.94 µM [inhibitor, partial curve, poor fit]",
Oc1c(C=C2N=c3ccccc3=N2)sc(=S)n1-c1ccc(F)cc1,"inconclusive: 89.1 µM [inhibitor, single point] and inconclusive: 8.91 µM [inhibitor, partial curve, poor fit]",
O=C(Nc1ccc(Oc2ccc(NC(=O)Nc3ccc([N+](=O)[O-])cc3)cc2)cc1)Nc1ccc([N+](=O)[O-])cc1,"inconclusive: 28.2 µM [inhibitor, partial curve, poor fit]",
CCOC(=O)c1ccc(NC(=O)Cc2cccs2)cc1,inactive,
O=C(CN1CCC(O)(c2cccc(F)c2)CC1)NCCc1c[nH]c2ccccc12,,inactive: 7.34% [at 12.7 µM]
Cc1nn(-c2ccccc2)c(N)c1N=Nc1ccccc1,active: 44.7 µM,
O=C(CSc1ccccn1)N1CCN(c2cccc(Cl)c2)CC1,active: 2.82 µM,
COc1ccc(C(=O)CSc2nnc(CNc3nc(-c4ccccc4)cs3)n2C)cc1,"inconclusive: 22.4 µM [inhibitor, single point]",

Compound,Potency,"activity, negative = inhibition"
Cc1cc(-c2ccc(C)c(S(=O)(=O)N3CCC(C)CC3)c2)on1,"inconclusive: 0.251 µM [inhibitor, partial curve, poor fit]",
O=C(O)/C=C\C(=O)Nc1ccccc1F,"inconclusive: 70.8 µM [inhibitor, single point]",
CC(=O)N1c2ccc(S(=O)(=O)N3CCCCCC3)cc2CC1C(=O)NC(C)C (centres undefined),"inconclusive: 0.708 µM [inhibitor, full curve, poor fit]",
N#Cc1c(-c2cccnc2)c2c([nH]c1=S)CCCC2,active: 0.708 µM,
CCOC(=O)N1CCN(C(=O)C2CCN(CC3CCCCC3)CC2)CC1,active: 35.5 µM,
COc1ccc2nc(SCC(=O)NC(C)C)[nH]c2c1,inactive,
CCN(CC)S(=O)(=O)c1ccc(S(=O)(=O)N(CC(=O)Nc2ccccc2)Cc2ccco2)cc1,"inconclusive: 39.8 µM [inhibitor, single point]",
C=CS(=O)(=O)c1ccc(Oc2ccc(S(=O)(=O)C=C)cc2)cc1,"inconclusive: 25.1 µM [inhibitor, single point]",
CCC[n+]1c(C)sc2c(OC)ccc(OC)c21,active: 25.1 µM,
CCn1c(C)cc2c(c1=O)C(c1ccc3c(c1)OCO3)C(C#N)=C(N)O2 (centres undefined),,inactive: -24.1% [at 12.7 µM]
N#Cc1cccc(NC(=O)CCNS(=O)(=O)c2ccc3[nH]c(=O)oc3c2)c1,inactive,
CC1(C)C(C=C(Cl)Cl)C1C(=O)N(Cc1cccc(Cl)c1)C1CCS(=O)(=O)C1 (centres undefined),"inconclusive: 1.41 µM [inhibitor, full curve]",
CCOC(=O)N1CCC(N2CCN(S(=O)(=O)c3ccc(NC(C)=O)cc3)CC2)CC1,"inconclusive: 3.16 µM [inhibitor, partial curve, poor fit]",
COC(=O)[C@@]1(Cc2ccc(OC)cc2)[C@H]2c3cc(C(=O)N4CCCC4)n(Cc4ccc(OC)c(OC)c4)c3C[C@H]2CN1C(=O)c1ccccc1,active: 44.7 µM,
CC(=O)c1ccc(NC(=O)C(Cc2ccccc2)n2cccc2)cc1 (centres undefined),"inconclusive: 89.1 µM [inhibitor, single point]",
CCN(CC(=O)Nc1c(F)cccc1F)C(=O)c1ccc(S(=O)(=O)N2CCC(C)CC2)cc1,,inactive: -4.12% [at 12.7 µM]
N#C/C(=C/c1ccc(Sc2nc3ccccc3[nH]2)o1)c1cccc(Br)c1,"inconclusive: 25.1 µM [inhibitor, single point]",
CCc1nn(CCCC(=O)N2CCN(c3cc(Cl)ccc3C)CC2)c(=O)c2cc3occc3n12,"inconclusive: 10 µM [inhibitor, partial curve]",
Cc1cccc(-n2cc(CN(C)Cc3nccn3C)c(-c3cccc(F)c3)n2)c1,active: 15.8 µM,
CCOc1cc(C(=O)Nc2ccc(S(=O)(=O)Nc3nnc(CC)s3)cc2)cc(OCC)c1OCC,"inconclusive: 89.1 µM [inhibitor, single point]",
CCOC(=O)C(=N/O)/C(C)=N/NC(C)=O,active: 7.08 µM,
CSc1nc(C)c2c(n1)N(c1ccc(O)cc1)CC2,"inconclusive: 50.1 µM [inhibitor, partial curve]",

# Source: PubChem BioAssay AID504332 (National Center for Advancing Translational Sciences (NCATS), 2011)
